Data from PubChem BioAssay AID1508624 (National Center for Advancing Translational Sciences (NCATS), 2021).
Hit rate of the full screen: of about 48,000 compounds, about 120 (0.25%) were called active. Not shown: some 4% with an inconclusive outcome. The call rests on the fitted dose curve; in most records, active means well fitted activation curve with a large enough effect; inconclusive means small, poorly fitted or top-dose-only effect, or another doubt; inactive means no such curve, though single readings can be large or run the other way. The list shows a part of the results.

Assay: Primary qHTS for Identification of Small Molecule Activators of Huntingtin-Antisense Promoter Activity; further: nearly all actives have a fitted effect of over 55% in size
Conditions: HEK293 HTT-AS promoter firefly luciferase reporter, 24 h; series mostly up to 57.5 µM; activity change, positive = activation: at the top concentration
Method in brief: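 HEK293 Fluc reporter, 2,500 cells/well, 24 h pre-culture; cpds up to 57.5 uM final, 24 h 37 degrees C; Dual-Glo, 10 min RT; normalized vehicle = 0%, zero RLU = -100%.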

Activity change, positive = activation, inactive:
CCOC(=O)c1nc(Nc2ccc(C(=O)OC(C)C)cc2)c2ccccc2n1 2.86%
COc1ccccc1NC(=O)c1oc2ccccc2c1NC(=O)Cc1ccccc1 -5.24%
O=C(CN1C(=O)CC(c2ccccc2)=Nc2ccccc21)Nc1ccc(Br)cc1 -20.1%
CNC(=O)c1ccc2c(c1)N(Cc1cc(C)ccc1C)C(=O)c1ccccc1S2 -30.3%
Cc1nn(C)c2c1c(-c1ccccc1)cc(=O)n2CC(=O)NC(C)c1ccccc1 (configuration not stated) -26.1%
CCCOc1ccc(C2c3c(-c4c(C)cc(C)cc4O)n[nH]c3C(=O)N2CCO)cc1 (configuration not stated) -27.5%
Cc1ccc(Cl)cc1NC(=O)c1sc(-n2nc(C)c(Cc3ccc4c(c3)OCO4)c2C)nc1C -6.3%
CCN1CCOC(=O)C1CC(=O)Nc1ccc(Br)cc1 (configuration not stated) -22.6%
CCOc1ccc(-c2cc3nc(C4CCN(C(=O)OC(C)(C)C)CC4)c(C(=O)Nc4cc(OC)ccc4OC)cn3n2)cc1 -2.44%
O=C(Cn1c(=O)n(Cc2ccccc2)c(=O)c2sc3ccccc3c21)Nc1ccccc1 -14.6%
CCCCCn1c(CN2CCN(c3ccc(OC)cc3)CC2)nc2c1c(=O)[nH]c(=O)n2C -18.2%
Cc1ccc(Cl)cc1NC(=O)Nc1cccc(OCc2cc(=O)n3ccccc3n2)c1 12.5%
COc1ccc(-n2c(-c3ccco3)nc3c(cnn3-c3ccccc3Cl)c2=O)cc1 -30.6%
O=C(CSc1cn(CC(=O)N2CCCCC2)c2ccccc12)Nc1ccccc1 -3.02%
COc1ccc(OC)c(C2=NS(=O)(=O)N(C)C(C(=O)Nc3ccc(F)cc3F)=C2)c1 -37.2%
N#Cc1nc(-c2ccc(COc3ccc(Cl)cc3)o2)oc1N1CCC(C(N)=O)CC1 -40.3%
Cc1ccc(C)c(NC(=O)C2CCCN(c3ncnc4onc(C)c34)C2)c1 (configuration not stated) -16.2%
O=C(Cn1c(=O)n(-c2ccccc2)c(=O)c2c3c(sc21)CCCC3)Nc1ccc(F)cc1F -23.1%
COc1cccc(CNC(=O)c2cccc(-n3c(C)nc4cccnc43)c2)c1OC -12.7%
Cc1cc(=O)n(Cc2ccc(Cl)cc2)c2c1c(C)nn2-c1ccccc1 -4.77%
COc1ccc(OC)c(S(=O)(=O)NCCS(=O)(=O)N2CCN(c3ccccc3)CC2)c1 -28.4%
O=C(NCc1noc2ccccc12)N1CCN(c2ccccc2)CC1 2.15%
O=C(NCC(c1ccco1)S(=O)(=O)c1cccs1)c1ccc(F)c(F)c1 (configuration not stated) 8.98%
CCc1ccccc1NC(=O)N1CCCn2nc(C)cc21 0.424%
Cc1nc(-c2ccccc2)sc1-c1ccc(SCC(=O)NCc2ccccc2Cl)nn1 13.2%
COc1ccc(OC)c(CNS(=O)(=O)c2ccc(-c3coc(C)n3)cc2)c1 -26.4%
CC(=O)c1cc(-c2ccccc2)n(CC(=O)Nc2ccc(C)c(C)c2)c1C -15.9%
CCOc1ccc(CNC(=O)CS(=O)(=O)c2cccc3nsnc23)cc1 -22.7%
COc1ccccc1-c1nc(SCC(=O)NCc2ccccc2)c2c(=O)n(C)c(=O)n(C)c2n1 -4.21%
Cc1cc2nc(-c3ccc(NC(=O)c4ccccc4F)cc3)oc2cc1C 16.3%
COc1ccc(C)cc1NC(=O)CC1NCCNC1=O (configuration not stated) -15.7% [at 11.5 µM, percent change from vehicle, -100% = no light]
Cc1cc(=O)n(Cc2ccccc2)c2c1c(C)nn2C -27.9%
COCCNC(=O)c1ccc2nc(Cc3ccccc3)oc2c1 30.6%
CC(C)N(CCCNC(=O)Cn1ncc2c([nH]c3ccccc32)c1=O)Cc1ccccc1 -9.55%
Cc1ccc(Nc2nnc(-c3ccc(C)c(S(=O)(=O)N4CCOCC4)c3)c3ccccc23)cc1 -2.2%
Cc1cc(C)c2c(=O)cc(C(=O)Nc3sc4c(c3C(=O)NCC3CCCO3)CCCC4)oc2c1 (configuration not stated) -4.07%
CCC(=O)C1=C(c2ccc(OC)c(OC)c2)N(C(=O)CC)n2c(nnc2-c2ccc(C)cc2)S1 -0.27%
CC(=O)c1ccc(N2CCN(c3ccc4cc(S(=O)(=O)N5CCCCC5)ccc4n3)CC2)cc1 -23.3%
CCOC(=O)c1ccc(NC(=O)CSc2nc3ccccc3c(=O)n2CCC(=O)NC2CCCCC2)cc1 1.95%
COc1ccc(-c2nc(CS(=O)(=O)CC(=O)NCCc3ccc(C)cc3)c(C)o2)cc1 -18.8%
Cc1cc(-c2ccccc2)n2nc(-c3ccccc3)cc2n1 15.9%
Cc1c(C(=O)O)oc2c1-c1nn(Cc3ccc(Cl)cc3)cc1CC2 -24%
CN(C)CCNC(=O)C(=O)NCC(c1ccc2c(c1)OCO2)N1CCOCC1 (configuration not stated) 1.64%
Cc1ccc2cccc(NC(=O)C(C)Oc3ccc(Cl)cc3Cl)c2n1 (configuration not stated) 6.87%
CCOc1ccc(C(c2c(O)cc(C)n(Cc3ccco3)c2=O)N2CCCCC2)cc1 (configuration not stated) 2.69%
COc1ccccc1C(=O)Nc1c(C(=O)Nc2ccccc2F)oc2ccccc12 -27.3%
Cc1ccc(NC(=O)CC2Sc3ccc(C(F)(F)F)cc3NC2=O)cc1 (configuration not stated) 17.7%
COc1ccc(CNC(=O)Nc2cn(CC(C)C)c(=O)c3ccccc23)cc1 -16.3%
CC(=O)c1ccc(NC(=O)CN(C)S(=O)(=O)c2cnc[nH]2)cc1 -13.3%
Cc1cc(Cl)ccc1OCC(=O)N1CCC(c2nc3ccccc3s2)CC1 -24.1%
O=C(Nc1cccc(-c2nc3ccccc3o2)c1)C(F)(F)F -91%
C[C@]12CCC(=O)C=C1[C@@H]1CC1[C@H]1[C@H]3[C@@H]4C[C@H]4[C@@]4(CCC(=O)O4)[C@@]3(C)CC[C@H]12 (some centres not stated) -13.3%
Cc1ncc(CO)c(C=O)c1O -11.4%
Cc1ccc(OCCSc2nc(C)c(Cc3ccccc3)c(=O)[nH]2)cc1 -14.2%
Cc1cc(C)c(NC(=O)CSc2nncn3c2cc2oc(C)cc23)c(C)c1 -9.3%
CCN1C(=O)c2ccccc2C1Nc1ccc(OCCN2CCCCC2)cc1 (configuration not stated) -2.75%
Cc1cccc(C(=O)Nc2ccc3nc(SCCOc4ccccc4)sc3c2)c1 -13.8%
CN(C)c1ccc(N=NS(=O)(=O)O)cc1 -81.2% [at 116 µM, percent change from vehicle, -100% = no light]
CCCCCOc1ccccc1/C(=C\SC)n1ccnc1 -32.4%
COc1ccc(CCNc2nc(SCc3ccc(Cl)cc3)nc3ccccc23)cc1OC -10.2%
Nc1ncc(S(=O)(=O)Nc2ccc(F)cc2F)cn1 -6.23%
CCc1cnc2c(c1SCC(=O)NCc1ccc(F)cc1)c(=O)n(C)c(=O)n2C -8.19%
